Source: PubChem BioAssay AID360 (National Center for Advancing Translational Sciences (NCATS), 2006)
Screen size: about 48,000 compounds; about 550 (1.1%) were called active. Inconclusive results (about 4%) are left out. Rule as the data show it: active = potency below about 15 µM; inconclusive = mostly about 16 µM to 33 µM; inactive = weaker than that. The list shows a part of the results.

Each compound was assayed against Lysosomal acid glucosylceramidase (Homo sapiens) (UniProt P04062) (assay: Glucocerebrosidase). Settings: purified enzyme, resorufin glucoside fluorescence (screen aimed at inhibitors), 20 min.
Procedure, shortened: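 Compounds titrated against 0.2 nM normal enzyme, 30 uM resorufin beta-D-glucopyranoside substrate, citrate/phosphate buffer with taurocholate and tween-20, pH 5.9. Reaction ran 20 min at room temperature; fluorescence (Ex 548/Em 600) gave AC50.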
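Also: the screen sought inhibitors.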
Potency is read from the fitted curve at half-maximal effect.

Chain of UniProt P04062 (P04062 whole entry, looked up): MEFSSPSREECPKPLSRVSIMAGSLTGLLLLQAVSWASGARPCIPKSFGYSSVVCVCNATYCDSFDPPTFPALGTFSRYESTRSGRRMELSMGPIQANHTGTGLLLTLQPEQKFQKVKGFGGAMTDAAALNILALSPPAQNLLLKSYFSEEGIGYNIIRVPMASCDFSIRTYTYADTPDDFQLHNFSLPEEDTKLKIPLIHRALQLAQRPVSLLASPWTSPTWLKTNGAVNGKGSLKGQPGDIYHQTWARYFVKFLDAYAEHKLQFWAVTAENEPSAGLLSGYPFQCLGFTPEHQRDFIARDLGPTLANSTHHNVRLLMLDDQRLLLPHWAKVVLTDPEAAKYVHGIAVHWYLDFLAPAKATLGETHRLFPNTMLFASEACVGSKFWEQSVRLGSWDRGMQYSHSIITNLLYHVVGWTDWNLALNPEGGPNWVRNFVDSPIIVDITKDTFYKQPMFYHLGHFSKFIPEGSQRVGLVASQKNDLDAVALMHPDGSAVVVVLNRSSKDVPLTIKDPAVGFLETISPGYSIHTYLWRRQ

Potency, inactive:
Cn1c(SCc2ccc(C#N)cc2)nnc1-c1cccc(Cl)c1 > 76.9 µM
COc1ccc(NC(=O)COc2nsnc2N2CCCCC2)cc1 > 76.9 µM
COc1ccc(-c2noc(-c3cccc(Cl)c3)n2)cc1OC
CSc1nsc(SC)c1NC(=O)OCCc1ccccn1 > 76.9 µM
CCc1ccc(S(=O)(=O)NCc2csc(C)n2)s1 > 76.9 µM
CCc1cccc2c(C#N)cn(CC(=O)NCCOC)c12 > 76.9 µM
COc1cccc2sc(NC(=O)c3ccc(S(=O)(=O)N4CCOCC4)cc3)nc12 > 76.9 µM
CC(=O)c1cccc(N(CC(=O)O)S(C)(=O)=O)c1 > 76.9 µM
CC1=CC=CC2=NC(=O)CC(C)(C(=O)N(CC(=O)NC(C)C)C3CCCC3)N12 (configuration not stated) > 76.9 µM
C=CCn1c(C(C)NC(=O)CCC)nc2ccccc21 (configuration not stated) > 76.9 µM
COC(=O)c1cc2sccc2n1Cc1ccc(C)cc1 > 76.9 µM
Cc1ccc(OCc2ccc(C(=O)N3CCOCC3)cc2)cc1C > 76.9 µM
CC(c1ccccc1)C1NC(C(=O)O)CS1 (configuration not stated) > 76.9 µM
COC(=O)c1c[nH]n2c(=O)cc(C)nc12 > 76.9 µM
COc1ccc(/C(O)=C2/C(=O)C(=O)N(CCN(C)C)C2c2ccc(C)cc2)cc1Cl (configuration not stated) > 76.9 µM
N#CCCN(Cc1cccnc1)C(=O)Nc1cccc(Cl)c1 > 76.9 µM
O=C(CSc1nc2ccccc2o1)NCCOc1ccccc1 > 76.9 µM
O=C(CSc1nnc(CNC(=O)c2ccccc2F)o1)c1ccc(Cl)cc1 > 76.9 µM
Cc1cccc(NC(=O)CSc2nnc(-c3ccccc3)n2N)c1 > 76.9 µM
Cc1csc2ncc(C(=O)NCc3ccco3)c(=O)n12 > 76.9 µM
Cc1ccc2nc(N3CCN(C(=O)c4cccs4)CC3)c(C#N)cc2c1 > 76.9 µM
O=C(OCc1nnc(-c2ccccc2)o1)c1cn(-c2ccccc2)nc1-c1ccccc1 > 76.9 µM
CCn1c(SCC(=O)NCc2ccco2)nnc1C(C)C > 76.9 µM
COc1ccc(S(=O)(=O)N2CCC(C)CC2)cc1Br > 76.9 µM
COc1ccc(S(=O)(=O)Cc2ccccc2)cc1N > 76.9 µM
Cc1nnc(C)n1/N=C/C=C/c1ccccc1 > 76.9 µM
COc1ccc(C(C)=O)cc1COC(=O)c1ccc(OCc2c(C)noc2C)cc1 > 76.9 µM
